± gives the uncertainty stated by the source. Shown are siRNA guide strands that differ only in the seed, positions 2 to 7.
Columns and labels:
3LL = test: cell viability relative to siNT1 control; higher = less toxic; settings: concentration: 10 nM; 96 h; Mus musculus;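 further: Luminescence-based viability of cells reverse transfected in 384-well plates with lipid-complexed siRNAs built on a non-toxic 19mer backbone whose passenger strand carries 2′-O-methyl groups at positions 1 and 2, triplicates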
M565 = test: cell viability relative to lipid-only control; HeyA8 human ovarian and H460 human lung cancer; M565 mouse liver and 3LL mouse lung cancer; siNT1 is a non-toxic control siRNA; higher = less toxic; settings: concentration: 10 nM; 96 h; Mus musculus
Procedure: (§1)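 Arrayed screen of 4096 siRNA duplexes, each carrying one of all possible 6mer seeds at guide-strand positions 2-7 in a fixed neutral 19mer scaffold (constant flanks: U at position 1, then ACAUGUAAACCA, plus a 3' AA overhang). The passenger strand is 2'-O-methylated at positions 1-2 so only the guide strand loads into RISC. Duplexes were reverse-transfected at 10 nM with RNAiMAX in triplicate in 384-well plates; viability was read by CellTiter-Glo ATP content 96 h after transfection. Values are % viability normalised to lipid-only wells (HeyA8, H460, M565) or to siNT1 (3LL).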

HeyA8 = test: as above; settings: concentration: 10 nM; 96 h; Homo sapiens
Procedure: as §1

H460 = test: as above; settings: concentration: 10 nM; 96 h; Homo sapiens
Procedure: as §1
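Wherever cell viability relative to lipid-only control is given: reverse lipid transfection in 384-well plates, in triplicate, of duplexes on a non-toxic 19mer backbone with passenger strand 2′-O-methylated at positions 1 and 2, luminescence viability read-out.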

| Sequence | cell viability (3LL) [%] | cell viability (M565) [%] | cell viability (HeyA8) [%] | cell viability (H460) [%] |
| --- | --- | --- | --- | --- |
| UCAACCGACAUGUAAACCAAA | 89.1 ± 14 | 62.8 ± 13 | 88 ± 6.5 | 56.6 ± 3.3 |
| UCGAUGGACAUGUAAACCAAA | 83.4 ± 16 | 39.1 ± 3.5 | 65.7 ± 6.8 | 58.3 ± 4 |
| UCCUCUAACAUGUAAACCAAA | 91.4 ± 20 | 67.9 ± 8.5 | 91.3 ± 2.8 | 66.1 ± 2.6 |
| UGGUAUCACAUGUAAACCAAA | 67.6 ± 5.6 | 71.3 ± 13 | 32.3 ± 3.4 | 25 ± 1.3 |
| UAAAUUUACAUGUAAACCAAA | 117 ± 11 | 105 ± 12 | 99.3 ± 9.6 | 74.1 ± 8.5 |
| UACAGGGACAUGUAAACCAAA | 10.8 ± 5.7 | 14 ± 5.3 | 49.1 ± 2.1 | 58 ± 11 |
| UCCCCUAACAUGUAAACCAAA | 108 ± 20 | 67.4 ± 9.3 | 97.7 ± 7.7 | 92.3 ± 17 |
| UUGCAGUACAUGUAAACCAAA | 43.4 ± 8.3 | 95.5 ± 23 | 69.5 ± 5.2 | 58.9 ± 6.8 |
| UAUUAUUACAUGUAAACCAAA | 102 ± 25 | 95.3 ± 14 | 94.9 ± 9.6 | 100 ± 11 |
| UUGCAAUACAUGUAAACCAAA | 80.8 ± 2.4 | 111 ± 20 | 85.2 ± 5.3 | 65 ± 3.8 |
| UCCUUCCACAUGUAAACCAAA | 29.5 ± 3.7 | 27.6 ± 2.7 | 26.7 ± 0.94 | 39.4 ± 1.8 |
| UCAUAUUACAUGUAAACCAAA | 93.1 ± 20 | 63.1 ± 15 | 83.1 ± 8.1 | 39.3 ± 3.5 |
| UGAGUCGACAUGUAAACCAAA | 101 ± 13 | 35.3 ± 6.3 | 88.4 ± 3 | 78.2 ± 5 |
| UCACUCUACAUGUAAACCAAA | 56.8 ± 13 | 49.9 ± 5.9 | 75.5 ± 9.2 | 24.1 ± 1 |
| UCGCGGGACAUGUAAACCAAA | 60.1 ± 19 | 29 ± 3 | 26.2 ± 4.2 | 38 ± 2 |
| UGACUACACAUGUAAACCAAA | 70.6 ± 27 | 19.4 ± 1.5 | 39.1 ± 2.9 | 34.4 ± 4.6 |
| UACCGGGACAUGUAAACCAAA | 92.8 ± 7.1 | 69.7 ± 22 | 73.4 ± 11 | 70.3 ± 9.1 |
| UAUGCAGACAUGUAAACCAAA | 85.3 ± 2.8 | 50.5 ± 3.6 | 104 ± 6.7 | 85.7 ± 6.3 |
| UGAACAUACAUGUAAACCAAA | 89.7 ± 17 | 65.6 ± 9.3 | 49.5 ± 23 | 82.4 ± 16 |
| UCUUCAGACAUGUAAACCAAA | 90.3 ± 12 | 77.8 ± 10 | 86.6 ± 10 | 61 ± 2.8 |
| UCUCCUCACAUGUAAACCAAA | 59.5 ± 10 | 38.8 ± 6.3 | 44.4 ± 3 | 24.3 ± 1.1 |
| UCGGUAUACAUGUAAACCAAA | 91.5 ± 22 | 72.4 ± 14 | 77.5 ± 2.9 | 73.5 ± 8.1 |
| UCAAACGACAUGUAAACCAAA | 97.4 ± 11 | 87.5 ± 6.9 | 95.2 ± 8.2 | 66.5 ± 14 |
| UGAUGCCACAUGUAAACCAAA | 22 ± 9.9 | 32.3 ± 5.8 | 4.07 ± 0.055 | 7.69 ± 2 |
| UAAUACGACAUGUAAACCAAA | 124 ± 13 | 109 ± 21 | 97.4 ± 4.9 | 93 ± 6.5 |
| UGCGACGACAUGUAAACCAAA | 95.8 ± 12 | 76.6 ± 4.4 | 83.8 ± 9.2 | 74 ± 7.7 |
| UCCUUUGACAUGUAAACCAAA | 105 ± 15 | 81.4 ± 8.7 | 82.2 ± 5.5 | 76 ± 7.7 |
| UCCACUCACAUGUAAACCAAA | 86.7 ± 18 | 65.3 ± 9.2 | 78.5 ± 11 | 57.2 ± 5.7 |
| UUUGACAACAUGUAAACCAAA | 101 ± 3.1 | 89 ± 17 | 102 ± 2 | 52.5 ± 2 |
